Measured values: PubChem BioAssay AID1508624 (National Center for Advancing Translational Sciences (NCATS), 2021)
The campaign covered roughly 48,000 compounds. About 120 (0.25%) were called active. Inconclusive results (about 4%) are left out. The call rests on the fitted dose curve; in most records, active means well fitted activation curve with a large enough effect; inconclusive means small, poorly fitted or top-dose-only effect, or another doubt; inactive means no such curve, though single readings can be large or run the other way. The list shows a part of the results.

assay: Primary qHTS for Identification of Small Molecule Activators of Huntingtin-Antisense Promoter Activity; conditions: HEK293 HTT-AS promoter firefly luciferase reporter, 24 h; series mostly up to 57.5 µM; activity change, positive = activation: at the top concentration; further: nearly all actives have a fitted effect of over 55% in size
Method in brief: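 Firefly luciferase signal from promoter-reporter HEK293 cells was scaled between vehicle (0%) and zero RLU (-100%). Compounds were tested at final concentrations of up to 57.5 uM over 24 h at 37 degrees C. PTC124 at 50 uM final served as control inhibitor.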
Potency means the concentration at half of the fitted maximal effect.

Activity change, positive = activation, inactive:
Cc1ccc2nc(Cl)c3cc(C(=O)NC4CCCCC4)sc3c2c1 -12.2%, COc1ccc(OC)c(NC(=O)C(NS(=O)(=O)c2ccc3c(c2)CCCC(=O)N3)C(C)C)c1 (stereo not given) 2.29%, CCOC(=O)c1ccc(NC(=O)c2nsc3ccccc23)cc1 -49.4%, NS(=O)(=O)c1ccc(Cl)c(S(N)(=O)=O)c1 -14.7%, Cc1ccc(-c2cnc(NCc3c(F)cccc3Cl)n2C)cc1 11%, CCOC(=O)c1cc(S(=O)(=O)N2CCN(c3cc(Cl)ccc3C)CC2)[nH]n1 -15.5%, CCOc1ccc(NC(=O)c2ccc3c(c2)c(C)c(C)n3Cc2ccc(F)cc2)cc1 -24.2%, Cc1ccc(NC(=O)Cn2ncc3c4ccccc4n(Cc4ccccc4)c3c2=O)cc1Cl -5.98%, Cc1ccc(C)c2sc(N3CCN(C(=O)c4ccco4)CC3)nc12 -20.7%, Cc1cn2c(=O)c(S(=O)(=O)NC(C)c3ccccc3)c(C)nc2s1 (stereo not given) -4.98%, Cc1c(C(=O)NN2CCCCC2)nn(-c2ccc(Cl)cc2Cl)c1-c1ccc(Cl)cc1, Cc1ccc(S(=O)(=O)c2nnn3c2nc(N2CCCCC2)c2sccc23)cc1 -1.6%, CCN(CC)S(=O)(=O)c1ccc(NC(=O)[C@H](CCSC)N2Cc3ccccc3C2=O)cc1 -8.21%, CCn1ccc2cc(S(=O)(=O)N3CCCN(C(=O)Nc4ccc(C)cc4)CC3)ccc21 -12.5%, Cc1cc(C)cc(N(C)S(=O)(=O)c2nnc(NC(=O)COc3ccc(Cl)cc3)s2)c1 -24.1%, CC(=O)c1cccc(NC(=O)CN2C(=O)CN(C)C(=O)c3ccccc32)c1 -15.9%, CCOc1ccc(Cn2c(CNS(=O)(=O)c3cccs3)nc3cccnc32)cc1 -21.2%, NC(=O)Cn1c(=O)n(-c2ccc(F)c(Cl)c2)c(=O)c2sc3ccccc3c21 -16.9%, Cc1ccc(N2CCN(c3cc(C)nc4c(-c5ccc(Cl)cc5)c(C)nn34)CC2C)cc1 (stereo not given) -10.7%, CCc1nc(SCc2cc(=O)c3cc(F)ccc3[nH]2)n[nH]1 -8.28%, CC(C)c1ccc(N2C(=O)CSC23C(=O)N(Cc2ccccc2F)c2ccccc23)cc1 (stereo not given) 0.511%, Cc1ccc(NC(=O)N2CCC(CN3CCCCCC3)CC2)c(Cl)c1 10.4%, Cc1nc(-c2ccc(S(=O)(=O)Nc3ccc(OC(F)(F)F)cc3)cc2)co1 -31.4%, CCCNC(=O)c1c(NC(=O)c2ccccc2F)sc2c1CCCCC2 -0.967%, Cc1cccc(C(=O)OCc2cc(=O)n3nc(C4CC4)sc3n2)c1 2.42%, Cc1ccc(-c2nc(C(=O)Nc3cccc(C#N)c3)c3n2CCCCC3)cc1 -35.8%, CC(C)Oc1ccc(CNS(=O)(=O)c2csc(C(N)=O)c2)cc1 -22.4%, COc1ccc(-c2nc(SCC(=O)Nc3ccc4c(c3)OCO4)c(-c3ccc(F)cc3)[nH]2)cc1OC -17.7%, CCOc1ccccc1NC(=O)CCc1nc(-c2cccc(C)c2)no1 -10.5%, COc1cc2c(cc1OC)CC(=O)N(CCCN(C)C[C@H]1Cc3cc(OC)c(OC)cc31)CC2 -2.47%, Cc1nc2nncn2c(Nc2ccc(F)cc2)c1C -33.3%, CCC(=O)N1CCc2cc(S(=O)(=O)NCCC(=O)NCc3ccc(OC)cc3)ccc21 0.962%, COc1cccc(-n2c(=O)c3sccc3n(Cc3cc(=O)n4cc(Cl)ccc4n3)c2=O)c1 -15.3%, CCCCCCCCCCCCOCCOCCOCCOCCOCCOCCOCCOCCOCCO -71.7%, Cc1ccc(N(C)S(=O)(=O)c2c(-c3ccccc3)csc2C(=O)O)cc1 -10.6%, COc1ccc(N2CCN(C(=O)c3c(C)oc4nc(C)nc(N5CCCC5)c34)CC2)cc1 -2.39%, COc1ccc(-c2nc(C)c(CCNC(=O)c3cccs3)s2)cc1 18.6%, Cc1nc2c([nH]1)CCN(C(=O)c1ccc(NC(=O)c3ccccc3-c3ccccc3)cc1)c1ccccc1-2 -21.3%, COc1cc([C@@H]2c3cc4c(cc3[C@H](O)[C@H]3COC(=O)[C@@H]23)OCO4)cc(OC)c1OC -25.1%, COc1cc(Cl)c(C)cc1NC(=O)c1nn(-c2ccc(C)cc2)c(=O)n(C)c1=O -5.06%, CCOc1ccc(S(=O)(=O)N(C(C)=O)c2ccc3oc(C)c(C(=O)OC)c3c2)cc1 -79.1%, Cc1ccc(CSc2nc3ccncc3n2Cc2nc(-c3ccc(Cl)cc3)oc2C)cc1 9.68%, CCOc1ccc(N2CC(NC(=O)c3cc4ccccc4o3)CC2=O)cc1 (stereo not given) -6.3%, COc1cccc(NC(=O)CSc2c(C)cnc3c2c(=O)n(C)c(=O)n3C)c1 -23.2%, CCOC(=O)c1ccc(NC(=O)C(=O)NCCc2ccc(OC)cc2)cc1 10.6% [at 11.5 µM, percent change from vehicle, -100% = no light], COc1ccc2oc(=O)c(C(=O)N3CCN(c4cc(Cl)ccc4Cl)CC3)cc2c1 -18.8%, Cc1ccc(C)c(NC(=O)Cn2c(-c3nonc3N)nc3ccccc32)c1 -25.2%, COc1ccccc1N1CCN(C(=O)c2cnn(C(C)(C)C)c2C2CCN(C(=O)OC(C)(C)C)CC2)CC1 -13.9%, Cc1ccc(C(=O)Nc2cc3cc(Cl)ccc3oc2=O)cc1 -18.6%, Cc1ccc(-c2nc(CCNC(=O)C(=O)Nc3ccc(F)cc3F)cs2)cc1 -4.99%, Cc1ccc2c(c1)N(CC(=O)NCCCN1CCCCC1)C(=O)c1cccnc1O2 -5.71%, COc1ccccc1CNC(=O)CCCN1C(=O)CCn2nc(-c3cn(C)c4ccccc34)cc21 -9.41%, COc1ccccc1NCc1nnc2n1CCCCC2 0.0993%, CC(C)C(=O)Nc1c(C(=O)N2CCN(c3ccccc3F)CC2)oc2ccccc12 -11%, Fc1ccc(C(c2nnc(-c3ccccc3)o2)N2CCN(c3ccccc3)CC2)c(Cl)c1 (stereo not given) -29.9%, Cc1ccc(-c2nc3sc(CCNC(=O)c4ccco4)c(C)n3n2)cc1 -11.3%, O=C(NCc1ccc(Cl)cc1)c1ccc2oc(=O)n(Cc3ccccc3)c2c1 -39.7%, CCOC(=O)Cn1c(=O)oc2cc(S(=O)(=O)N3CCCC(C)C3)ccc21 (stereo not given) -19.7%, CCCCn1cc(S(=O)(=O)c2ccc(Cl)cc2)c(=O)c2cc(F)c(N3CCCC(C)C3)cc21 (stereo not given) -13.2%, CCOC(=O)c1cc(S(=O)(=O)N2CCN(c3cccc(OC)c3)CC2)[nH]n1 -6.61%, COC(=O)c1c(-c2ccc(Cl)cc2)noc1N1CCN(c2cccc(C)c2C)CC1 -20.2%, CCc1cnc2c(c1SCC(=O)Nc1ccc(OC)c(OC)c1)c(=O)n(C)c(=O)n2C -13.4%, COc1ccc(Nc2cc(C(=O)NCc3cccs3)c3ccccc3n2)cc1 9.7%, CCCCOC(=O)Cn1nnc2sc(-c3ccccc3)cc2c1=O -2.12%, COc1ccc(CCNC(=O)CSc2cn(CCNC(=O)c3ccccc3F)c3ccccc23)cc1OC -26.9%, CN1CCN(C(=O)C(=O)Nc2c3c(nn2-c2cccc(Cl)c2)CSC3)CC1 -8.24%, O=C(CSc1ncc(-c2ccccc2)[nH]1)Nc1ccc(F)cc1F 5.78%, COc1cc(C(=O)N2CCC(N3CCN(C)CC3)CC2)ccc1Nc1ncc2c(n1)N(C)c1ccccc1C(=O)N2C -6.9%, CCOC(=O)c1c(C)[nH]c(C)c1S(=O)(=O)N1CCCC(C(=O)NCc2ccc(C)cc2)C1 (stereo not given) 10.5%, Cc1ccc(Cn2c(=O)n(CCc3ccccc3)c(=O)c3c(C)c(C)sc32)cc1 -0.473%, CCc1ccccc1N1C(=O)N(CC(=O)c2ccc(Cl)cc2)c2ccccc2S1(=O)=O -27.6%, COC(=O)c1c(SC)nc2ccccc2c1OCc1ccc(C)cc1 5.19%, Clc1ccc(C(Cn2ccnc2)OCc2ccsc2Cl)c(Cl)c1 (stereo not given), CCOC(=O)c1noc2ncn(Cc3cccc(C#N)c3)c(=O)c12 5.4%, O=C(CCCn1c(=O)[nH]c2ccsc2c1=O)N1CCN(c2cccc(C(F)(F)F)c2)CC1 -24.8%, Cc1cc(Cl)ccc1NC(=O)CN1C(=O)COc2ccc(S(=O)(=O)N3CCC(C)CC3)cc21 -16.8%, COc1ccccc1CN(Cc1ccco1)c1cnc(S(C)(=O)=O)nc1C(=O)Nc1ccccc1Cl -23.4%, CCOc1ccc(CCNC(=O)CCCc2nnc3n(C)c(=O)c4sccc4n23)cc1OCC 6.13%, Cc1c(C(=O)OC2CCC(C)CC2)[nH]c2c1C(=O)CC(c1ccccc1Cl)C2 (stereo not given) -17%, COc1ccc(OCC(=O)Nc2nc(-c3ccc(Br)cc3)ns2)cc1 6.81%, COc1ccc(NC(=O)NCc2c(-n3cccc3)sc3c2CCCC3)c(OC)c1 5.24%, CCNc1nc(NC(C)CC)nc(Oc2ccc(OCC)nn2)n1 (stereo not given) 1.92%, CCc1cccc(C)c1NC(=O)NC1COc2ccccc2C1 (stereo not given) -13.9%, COc1ccc(NC(=O)CSc2nc(-c3ccc(OC)c(OC)c3)[nH]c2-c2ccc(C)cc2)cc1 -17.8%, CCOC(=O)Cc1ccc(NC(=O)N(C(C)C)C2CCN(C(C)=O)CC2)cc1 -0.526%, COc1ccc(NCc2cc3cc4c(cc3n(CC(=O)Nc3ccccc3)c2=O)OCO4)cc1 -9.52%, CCOc1ccc(CNC(=O)Cn2cc3c(n2)-c2c(oc(C(=O)N4CCCC4)c2C)CC3)cc1 -37.3%, CCCC1=Nc2cc(C(=O)NCC(C)c3ccccc3)ccc2Sc2ccccc21 (stereo not given) -33.9%, COc1cccc(CNC(=O)Cn2nc3c(cc2=O)CCCC3)c1OC -5.39%, Cc1ccc(C2c3c(-c4ccccc4O)n[nH]c3C(=O)N2CCc2ccccc2)cc1 (stereo not given) -34.9%, CC1CCCN(C(=O)CCS(=O)(=O)c2cc3c(cc2Cl)NC(=O)CO3)C1 (stereo not given) -8.56%, CC(C)c1ccc(NC(=O)CN2C(=O)CCc3cc(S(=O)(=O)N4CCOCC4)ccc32)cc1 -13%, COc1ccc(C(=O)N2CCN(C(=O)COc3ccc(C)cc3)CC2)cc1OC 2.69%, O=C(Cn1cc(S(=O)(=O)N2CCN(c3ccccc3F)CC2)c2ccccc2c1=O)Nc1ccc(F)cc1Cl -16.1%

Potency, active:
Cc1cc2nc(-c3cccc(NC(=O)COc4ccc(C(C)C)cc4)c3)oc2cc1C 1000 nM
